Measured values taken from paper PMC4336329 (PLoS ONE, 2015).
In all, about 310,000 compounds went through this assay and about 2,200 (0.71%) showed an effect of 50% or more. Effects have a minus sign here. The list shows a part of the results.

Target: human ether-à-go-go-related gene (hERG) potassium channel (human, UniProt Q12809)
Test: primary screen, population patch clamp on CHO cells stably expressing hERG

Sequence of human ether-à-go-go-related gene (hERG) potassium channel (Q12809 whole entry, looked up): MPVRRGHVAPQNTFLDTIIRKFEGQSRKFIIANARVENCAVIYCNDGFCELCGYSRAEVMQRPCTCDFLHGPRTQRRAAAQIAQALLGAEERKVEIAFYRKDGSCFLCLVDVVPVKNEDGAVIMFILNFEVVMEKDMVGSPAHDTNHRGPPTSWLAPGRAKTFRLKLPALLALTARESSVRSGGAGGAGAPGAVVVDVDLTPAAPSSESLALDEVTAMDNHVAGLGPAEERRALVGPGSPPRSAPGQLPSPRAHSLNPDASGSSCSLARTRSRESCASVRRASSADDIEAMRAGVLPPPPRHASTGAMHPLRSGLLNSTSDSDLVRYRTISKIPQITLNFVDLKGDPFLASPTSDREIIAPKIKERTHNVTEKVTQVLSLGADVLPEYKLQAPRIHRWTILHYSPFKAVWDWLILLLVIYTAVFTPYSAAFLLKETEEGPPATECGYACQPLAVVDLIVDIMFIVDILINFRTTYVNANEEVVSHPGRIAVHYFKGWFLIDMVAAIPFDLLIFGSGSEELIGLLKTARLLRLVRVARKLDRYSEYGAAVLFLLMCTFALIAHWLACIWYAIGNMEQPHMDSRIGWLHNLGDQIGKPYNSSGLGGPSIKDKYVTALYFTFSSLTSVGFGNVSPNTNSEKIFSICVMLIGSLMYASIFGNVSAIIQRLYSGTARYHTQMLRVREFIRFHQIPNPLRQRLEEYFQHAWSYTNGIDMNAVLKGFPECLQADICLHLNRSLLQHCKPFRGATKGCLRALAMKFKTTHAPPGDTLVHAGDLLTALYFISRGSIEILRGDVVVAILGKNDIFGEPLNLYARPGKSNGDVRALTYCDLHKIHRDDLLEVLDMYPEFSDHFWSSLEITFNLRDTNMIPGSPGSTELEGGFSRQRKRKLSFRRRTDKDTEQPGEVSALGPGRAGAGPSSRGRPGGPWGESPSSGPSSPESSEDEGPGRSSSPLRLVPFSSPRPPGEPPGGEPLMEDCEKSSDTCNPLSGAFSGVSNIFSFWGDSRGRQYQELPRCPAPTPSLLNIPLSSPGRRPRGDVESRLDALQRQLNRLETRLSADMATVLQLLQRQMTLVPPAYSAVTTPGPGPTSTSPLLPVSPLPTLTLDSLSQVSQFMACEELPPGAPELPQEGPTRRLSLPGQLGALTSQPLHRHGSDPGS

SMILES	hERG current change (%, negative = inhibition) at 1uM [%]
O=C(Nc1cc(=O)[nH]c2ncnn12)c1ccco1	14.2
Cc1cccc(C)c1OCCN1CCCC1	12.3
COC(=O)[C@]1(CC(C)C)N[C@H](c2ccc(-c3ccc(Cl)c(Cl)c3)cc2)[C@@H]2C(=O)N(C)C(=O)[C@@H]21.O=C(O)C(F)(F)F	11.3
COc1ccc(OC)c(NC(=O)CC2C(=O)NCCN2C(=O)Nc2cccc(Cl)c2)c1 (stereo not drawn)	5.49
Cc1ccc(S(=O)(=O)N(C)CC(=O)OCC(=O)N2CCCC2=O)cc1	7.55
O=C(C1Cc2ccccc2CN1S(=O)(=O)c1cccs1)N1CCCCC1 (stereo not drawn)	3.1
O=C(O)CCCC(=O)N1N=C(c2ccccc2)CC1c1cccs1 (stereo not drawn)	1.73
Cc1ccc(S(=O)(=O)N/N=C\c2ccc(C)o2)cc1	8.41
COc1cccc(NC(=O)c2nnn(CC(=O)Nc3cc(C)cc(C)c3)c2N)c1	12.5
CCOCC(=O)Nc1nnc(C)s1	11.7
CCCCCN(C(=O)CCC(=O)OCC(=O)NCc1cccc(OC)c1)c1c(N)n(CCCC)c(=O)[nH]c1=O	0.573
O=C(Cn1c2c(c(=O)n3ncnc13)CCC2)N/N=C/c1ccc(Cl)cc1	9.25
COC(=O)c1cccc(NC(=O)c2cc(OC)c(OC)c(OC)c2Br)c1	11.3
CC(NC(=O)c1ccc(N(C)C)c([N+](=O)[O-])c1)c1ccc(-n2ccnc2)cc1 (stereo not drawn)	-2.05
Cc1ccc(Cn2c(C(C)Nc3nc(-c4ccc(Cl)c([N+](=O)[O-])c4)cs3)nc3cc(C(F)(F)F)ccc32)cc1 (stereo not drawn)	7.11
CCN1C(=O)c2ccccc2Sc2ccc(C(=O)NCCCN3CCCCC3)cc21	3.53
O=C(NCc1ccc2c(c1)OCO2)c1nnc(Cc2ccc(Cl)cc2)o1	10.1
CCOc1ccc(S(=O)(=O)N(CC(=O)N/N=C/c2ccc(-c3ccc([N+](=O)[O-])cc3)o2)c2ccccc2)cc1	-1.72
NC(=O)c1ccc(NC(=O)CNCc2ccccc2Cl)cc1	13.1
CC(=O)c1ccc(NC(=O)C2(c3ccccc3)CCOCC2)cc1	10.2
CCCOc1ccc(C(=O)NCCc2ccccc2)cc1	-2.39
COc1ccc(C(CC(=O)N2CCCCC2)c2c(OC)cc(OC)c3ccc(=O)oc23)cc1 (stereo not drawn)	16.8

SMILES	hERG current change (%, negative = inhibition) at 1uM [%]
Cc1ccnc(NC(=O)c2cc3c(=O)oc4ccc(C)cc4c3s2)c1	12.9
COc1ccc(/C=N/n2c(C)cc(C)c(C(N)=O)c2=O)cc1	13.2
COc1cc(/C=C/C(=O)NC(=O)c2ccccc2O)ccc1O	9.8
COC(=O)c1ccc(COC(=O)CNS(=O)(=O)c2ccc(C)cc2)cc1	12.4
COc1ccc(C(=O)NCc2nc(C)c(C)s2)cc1OC1CCN(C(C)C)CC1	15.3
COc1ccc(S(=O)(=O)N2CCCCC2)cc1NCC(=O)Nc1ccc(C)cc1	12.6
COC(=O)c1cc(C(=O)N2CCN(c3ncccn3)CC2)cc([N+](=O)[O-])c1	4.57
O=C(CSc1nnc2c(n1)[nH]c1ccccc12)NC1CCCCC1	8.34
O=C(CCNC(=O)c1ccc(Br)cc1)Nc1ccccc1N1CCCCC1	9.7
CC1(C)C2CC=C(/C=N/NC(=S)NCCc3ccccc3)C1C2 (stereo not drawn)	8.68
COc1cccc(C(=O)NCc2ccc3c(c2)OCO3)c1OC	13.7
CCN1CCN(C(=O)c2ccc(CN(c3ccccc3)S(=O)(=O)c3ccccc3)cc2)CC1	-9.8
CCOc1ccc(NC(=O)CSc2nnc(-c3ccoc3C)n2CC2CCCO2)cc1 (stereo not drawn)	2.35
COc1ccccc1NS(=O)(=O)c1cc(NC(=O)c2ccco2)ccc1N1CCOCC1	9.3
CN(C)CCCNc1ncnc2c1c(-c1ccccc1)cn2-c1ccccc1	-18.2
O=C(CCS(=O)(=O)c1ccc(Br)s1)Nc1ccccc1Br	7.6
O=C(Nc1ccccc1)Nc1ccc2nnsc2c1	5.61
O=C(NCC(c1ccco1)N1CCN(c2ccccc2)CC1)c1ccc2c(c1)OCO2 (stereo not drawn)	4.24
CC1CN(C2=NC(=O)/C(=C/c3ccncc3)S2)CC(C)O1 (stereo not drawn)	2.25
COc1ccc(CCNC(=O)c2ccc(Cl)cc2Cl)cc1OC	-3.17
CCC(=O)Nc1ccc(NC(=O)c2ccccc2Cl)nc1	11.6
CCOC(=O)CCn1c(=O)c2c(nc(Br)n2Cc2ccccc2)n(C)c1=O	-0.0932

SMILES	hERG current change (%, negative = inhibition) at 1uM [%]
CC12CN3CC(C)(CN(C1)C3c1ccco1)C2=O (stereo not drawn)	4.46
CCc1c(O)nc(SCC(=O)NC(C)(C)C)n(-c2ccccc2)c1=O	6.69
O=C(CN1C2CCCC1CC(NC(=O)c1ccco1)C2)Nc1ccccc1C(F)(F)F (stereo not drawn)	0.252
Cc1ccc2c(c1)c1c(n2C)C(C(N)=O)CCC1 (stereo not drawn)	-10.2
CCc1cccc2c(=O)c(C(=O)NCCN3CCOCC3)c[nH]c12	16.1
Cc1ccc(OCc2nc(-c3ccccc3)no2)c(C)c1	1.61
CCOC(=O)CC1C(=O)NCCN1C(=O)c1cccc(C(F)(F)F)c1 (stereo not drawn)	13
COc1ccc(NC(=O)CN2CCC(C)CC2)cc1	-0.0667
Cc1cc(S(=O)(=O)N2CCN(C(=O)CCC(=O)N3CCOCC3)CC2)ccc1Br	10.9
Cc1[nH]c(N=Nc2ccccc2)nc1N=Nc1ccccc1	16.5
CC1(C(=O)Nc2nccs2)Cc2ccccc2C(=O)O1 (stereo not drawn)	-3.57
NS(=O)(=O)c1ccc(CCNC(=O)c2ccccc2OCc2ccc(F)cc2)cc1	13.8
O=C(NCc1ccccc1)c1cccc(COc2cc(Cl)ccc2Cl)c1	13.9
Cc1nn(CC(=O)Nc2cccnc2)c(C)c1[N+](=O)[O-]	11.5
CCOCCCNC(=O)C1CCN(C(=O)Nc2ccc(C)cc2)CC1	2.66
COc1ccc(Cl)cc1N(CC(=O)N1CCCCC1)S(C)(=O)=O	19
CS(=O)(=O)Nc1ccc(S(=O)(=O)N2CCOCC2)cc1	8.65
CCCCN(CC)C(=O)CN(C)S(=O)(=O)c1cccc2nsnc12	9.78
C/C(=N/NC(=O)c1nnn(-c2nonc2N)c1-c1ccccc1)c1ccc2c(c1)OCO2	14.8
CCN(C(=O)COC(=O)c1ccc(Br)o1)C1CCCCC1	8.75
CC1CC(C)CN(C(=O)C2CCCN(S(=O)(=O)c3cnc[nH]3)C2)C1 (stereo not drawn)	2.33
CC1CN(C(=O)c2ccc(NS(=O)(=O)c3ccc(F)cc3)cc2)CC(C)O1 (stereo not drawn)	12.6

SMILES	hERG current change (%, negative = inhibition) at 1uM [%]
CCCCSC(=O)Nc1ccccc1	4.75
C=CCn1c(SCC(=O)OC)nc2sc3c(c2c1=O)CCN(C)C3	-6.47
COc1ccc(N(C(=O)Cn2nnc(-c3ccccc3F)n2)C(C(=O)NCC2CCCO2)c2ccc(Cl)cc2)cc1 (stereo not drawn)	16
CC(C)Cc1nnc(NC(=O)CCC(=O)NCCc2ccccc2)s1	11.9
CSc1ccccc1C(=O)N1CCCC(CCC(=O)NCc2ccc(F)c(F)c2)C1 (stereo not drawn)	13.9
N#Cc1nc(-c2cccs2)oc1NCc1ccccc1	4.69
O=C(Cn1c(=O)oc2cc(S(=O)(=O)N3CCCCC3)ccc21)N1CCCCC1	13.4
N#Cc1c(C(F)(F)F)cc(=O)[nH]c1SCC(=O)O	8.23
CSc1ccc2c(c1)C(N1CCN(C)CC1)Cc1ccc(F)cc1S2.O=C(O)/C=C\C(=O)O (stereo not drawn)	3.82
Cc1nc(SCCOc2ccccc2F)[nH]c(=O)c1Cc1ccccc1	22.9
O=C(Nc1sc2c(c1C(=O)O)CCC2)c1ccccc1Cl	19.6
CCOc1ccccc1C(=O)N[C@H](C(=O)Nc1ccc(OC)c(S(=O)(=O)N2CCOCC2)c1)C(C)C	13.6
CC(=O)N1CCN(C(=O)COC(=O)COc2c(C)cc(C)cc2C)CC1	-0.0845
CCOC(=O)CSc1nnc(-c2ccccc2)c(-c2ccccc2)n1	10.7
COc1ccc(Cl)cc1-c1csc(N)n1	-6.49
CCCCCn1c(=O)[nH]c2cc(C(=O)NCc3ccccn3)ccc2c1=O	12.4
O=C(Nc1cnn(Cc2ccc(F)cc2)c1)c1cc(-c2cccs2)on1	-2.6
COc1ccc(NC(=O)C(=O)Nc2cccc3cccnc23)cc1OC	13.2
O=C(CCCN1C(=O)c2cccc3cccc(c23)C1=O)Nc1nccs1	3.95
O=C(Nc1cc([N+](=O)[O-])ccc1F)c1ccc2c(c1)OCCO2	12.7
CN1CCN(c2ccc(S(C)(=O)=O)cc2[N+](=O)[O-])CC1	1.9
